What all share (experiment): DTP human tumour cell line panel, 48 h
The subject of assay [1] is NCI/ADR-RES ovarian.
Assay [2] concerns NCI-H23 lung.
Assay [3] concerns MALME-3M melanoma.
In assay [4] the test system is RPMI-8226 leukemia.
Assay [5] relates to MOLT-4 leukemia.
The subject of assay [6] is K-562 leukemia.
Assay [7] deals with SF-295 CNS.
For assay [8], the system named is CCRF-CEM leukemia.
The subject of assay [9] is CAKI-1 renal.
The subject of assay [10] is MDA-MB-231 breast.
Assay [11] has as its system SR leukemia.

Consider four compounds from PubChem BioAssay (NCI).

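All cell lines were grown in 96-well plates and treated with compound for 48 hours. GI50 marks 50% less growth.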 A number of entries come with more than one value. This list holds those alone. There may be further records. For part of these data: The records of an entry are repeated measurements (runs, samples, wells, individuals or studies). Brackets tell where a record comes from. Letters hold for one entry only.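 TGI is the concentration that stops growth completely.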 For part of these data: The tests behind the records often covered other concentration ranges, not given here; a value can be the end of its range.

Consider `COc1ccc2[nH]cc(/C=C(/C)c3ccncc3)c2c1`, for which the TGI – broadly, the concentration giving total growth inhibition – is > 100 µM and 8.98 µM in [1]; > 100 µM and 8.5 µM in assay [2].
Regarding `Cc1ccc(-c2cc(-c3ccco3)c(C#N)c(=S)n2C2OC(CO)C(O)C(O)C2O)cc1` (configuration not stated), the GI50 – broadly, the concentration at which growth is held to half of that of the control – in assay [3] was 9.4 µM [sample A, 1 test] and > 100 µM [sample B, 1 test].
As for `O=C1C=C[C@@H](COC2OC(CO)C(O)C(O)C2O)O1` (some centres not stated), the TGI in [4] is 8.78 µM and > 100 µM.
As for `CC1=C2C(=C[C@@](C)(CO)[C@@H]2O)C(=O)[C@](C)(O)C12CC2`, the TGI in assay [5] was 442 nM and > 100 µM; in assay [6], 2.44 µM and > 100 µM; in [7] it was 9.35 nM and 221 nM; in assay [8], 3.4 µM and > 100 µM; in assay [2] it was 17.4 nM and 2.18 µM; in assay [9], 83.4 nM and 11.9 µM. The TGI in assay [10] is 72.4 nM and 75.5 µM; in [11] it was 134 nM and > 100 µM.
